# Assay results as given in PMC12820563.
# Some of the results follow. The list includes weakly bound sequences.
# Molecular target: T1, MBP-FoxP3dN (UniProt Q99JB6)
# T1 sequence: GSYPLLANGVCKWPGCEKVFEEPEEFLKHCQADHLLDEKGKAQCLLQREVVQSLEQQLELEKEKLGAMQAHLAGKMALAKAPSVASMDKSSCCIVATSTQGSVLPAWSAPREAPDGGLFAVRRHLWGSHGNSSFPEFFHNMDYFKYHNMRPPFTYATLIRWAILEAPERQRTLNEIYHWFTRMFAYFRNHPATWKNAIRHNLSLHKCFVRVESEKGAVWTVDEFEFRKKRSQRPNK
# Assay: PD-seq (MBP pull-down with sequencing)
# Conditions: 20 mM Tris-HCl pH 7.5, 100 mM NaCl, 1.5 mM MgCl2, 0.4 uM protein, 0.1 uM dsDNA library, 30 min, room temperature, amylose pull-down; high values mean tight binding; double strand, one strand shown
row,Sequence,binding signal (RPM ratio (pull-down/input))
1,GATGATTGTTCTCCCAGCTGATGAATTCTGTGACTCGAGTAAACAAATTTTCCTAATCTTTCTGTTCAAGCGCCATCTAC,1.37
2,GATGATTGTTCTCCCAGCTGATGAATTCCTTCCCTCGAGTAAACAAATTTTCCTAATCTTTCTGTTCAAGCGCCATCTAC,0.212
3,GATGATTGTTCTCCCAGCTGATGAATTTAACACGTCGAGTAAACAAATTTTCCTAATCTTTCTGTTCAAGCGCCATCTAC,0.655
4,GATGATTGTTCTCCCAGCTGATGAATTGGGAACCTCGAGTAAACAAATTTTCCTAATCTTTCTGTTCAAGCGCCATCTAC,0.26
5,GATGATTGTTCTCCCAGCTGATGAATTATGAGTCTCGAGTAAACAAATTTTCCTAATCTTTCTGTTCAAGCGCCATCTAC,2.02
6,GATGATTGTTCTCCCAGCTGATGAATTTAAGACGTCGAGTAAACAAATTTTCCTAATCTTTCTGTTCAAGCGCCATCTAC,0.273
7,GATGATTGTTCTCCCAGCTGATGAATTACTACCATCGAGTAAACAAATTTTCCTAATCTTTCTGTTCAAGCGCCATCTAC,0.537
8,GATGATTGTTCTCCCAGCTGATGAATTCGCCAACTCGAGTAAACAAATTTTCCTAATCTTTCTGTTCAAGCGCCATCTAC,0.292
9,GATGATTGTTCTCCCAGCTGATGAATTTTCGCGATCGAGTAAACAAATTTTCCTAATCTTTCTGTTCAAGCGCCATCTAC,0.483
10,GATGATTGTTCTCCCAGCTGATGAATTGCGGTTGTCGAGTAAACAAATTTTCCTAATCTTTCTGTTCAAGCGCCATCTAC,1.84
11,GATGATTGTTCTCCCAGCTGATGAATTAACAACTTCGAGTAAACAAATTTTCCTAATCTTTCTGTTCAAGCGCCATCTAC,0.722
12,GATGATTGTTCTCCCAGCTGATGAATTTTGTATCTCGAGTAAACAAATTTTCCTAATCTTTCTGTTCAAGCGCCATCTAC,5.89
13,GATGATTGTTCTCCCAGCTGATGAATTCGCATTCTCGAGTAAACAAATTTTCCTAATCTTTCTGTTCAAGCGCCATCTAC,4.89
14,GATGATTGTTCTCCCAGCTGATGAATTATTGATTTCGAGTAAACAAATTTTCCTAATCTTTCTGTTCAAGCGCCATCTAC,1.68
15,GATGATTGTTCTCCCAGCTGATGAATTGCCCTTATCGAGTAAACAAATTTTCCTAATCTTTCTGTTCAAGCGCCATCTAC,0.667
16,GATGATTGTTCTCCCAGCTGATGAATTTTACATATCGAGTAAACAAATTTTCCTAATCTTTCTGTTCAAGCGCCATCTAC,0.455
17,GATGATTGTTCTCCCAGCTGATGAATTCAACTTTTCGAGTAAACAAATTTTCCTAATCTTTCTGTTCAAGCGCCATCTAC,0.341
18,GATGATTGTTCTCCCAGCTGATGAATTAGGGCTCTCGAGTAAACAAATTTTCCTAATCTTTCTGTTCAAGCGCCATCTAC,0.379
19,GATGATTGTTCTCCCAGCTGATGAATTTTTGTAATCGAGTAAACAAATTTTCCTAATCTTTCTGTTCAAGCGCCATCTAC,1.32
20,GATGATTGTTCTCCCAGCTGATGAATTCCCTTTTTCGAGTAAACAAATTTTCCTAATCTTTCTGTTCAAGCGCCATCTAC,0.238

row,Sequence,binding signal (RPM ratio (pull-down/input))
1,GATGATTGTTCTCCCAGCTGATGAATTTCCTTATTCGAGTAAACAAATTTTCCTAATCTTTCTGTTCAAGCGCCATCTAC,0.329
2,GATGATTGTTCTCCCAGCTGATGAATTCTTAACATCGAGTAAACAAATTTTCCTAATCTTTCTGTTCAAGCGCCATCTAC,0.41
3,GATGATTGTTCTCCCAGCTGATGAATTGCTGTCATCGAGTAAACAAATTTTCCTAATCTTTCTGTTCAAGCGCCATCTAC,1.17
4,GATGATTGTTCTCCCAGCTGATGAATTTCACGACTCGAGTAAACAAATTTTCCTAATCTTTCTGTTCAAGCGCCATCTAC,0.3
5,GATGATTGTTCTCCCAGCTGATGAATTACTCTATTCGAGTAAACAAATTTTCCTAATCTTTCTGTTCAAGCGCCATCTAC,0.342
6,GATGATTGTTCTCCCAGCTGATGAATTCCAATCTTCGAGTAAACAAATTTTCCTAATCTTTCTGTTCAAGCGCCATCTAC,0.328
7,GATGATTGTTCTCCCAGCTGATGAATTCTCGCAATCGAGTAAACAAATTTTCCTAATCTTTCTGTTCAAGCGCCATCTAC,2.31
8,GATGATTGTTCTCCCAGCTGATGAATTACACGATTCGAGTAAACAAATTTTCCTAATCTTTCTGTTCAAGCGCCATCTAC,0.372
9,GATGATTGTTCTCCCAGCTGATGAATTATCGGAATCGAGTAAACAAATTTTCCTAATCTTTCTGTTCAAGCGCCATCTAC,0.252
10,GATGATTGTTCTCCCAGCTGATGAATTCCGAAACTCGAGTAAACAAATTTTCCTAATCTTTCTGTTCAAGCGCCATCTAC,0.676
11,GATGATTGTTCTCCCAGCTGATGAATTTCACTCCTCGAGTAAACAAATTTTCCTAATCTTTCTGTTCAAGCGCCATCTAC,0.535
12,GATGATTGTTCTCCCAGCTGATGAATTAAGGCATTCGAGTAAACAAATTTTCCTAATCTTTCTGTTCAAGCGCCATCTAC,5.16
13,GATGATTGTTCTCCCAGCTGATGAATTGGCTAGATCGAGTAAACAAATTTTCCTAATCTTTCTGTTCAAGCGCCATCTAC,0.342
14,GATGATTGTTCTCCCAGCTGATGAATTACAAGATTCGAGTAAACAAATTTTCCTAATCTTTCTGTTCAAGCGCCATCTAC,0.393
15,GATGATTGTTCTCCCAGCTGATGAATTTTTAGATTCGAGTAAACAAATTTTCCTAATCTTTCTGTTCAAGCGCCATCTAC,0.271
16,GATGATTGTTCTCCCAGCTGATGAATTGGGACGATCGAGTAAACAAATTTTCCTAATCTTTCTGTTCAAGCGCCATCTAC,0.234
17,GATGATTGTTCTCCCAGCTGATGAATTTCATTCGTCGAGTAAACAAATTTTCCTAATCTTTCTGTTCAAGCGCCATCTAC,0.473
18,GATGATTGTTCTCCCAGCTGATGAATTACTGCTTTCGAGTAAACAAATTTTCCTAATCTTTCTGTTCAAGCGCCATCTAC,0.824
19,GATGATTGTTCTCCCAGCTGATGAATTATCATTATCGAGTAAACAAATTTTCCTAATCTTTCTGTTCAAGCGCCATCTAC,0.815
20,GATGATTGTTCTCCCAGCTGATGAATTGGTAGAATCGAGTAAACAAATTTTCCTAATCTTTCTGTTCAAGCGCCATCTAC,0.282
